The source gives no read counts; variants with many changes may rest on few reads.
B1: LINE1-mini (parent)
chain: GGCAGAGCUCAACACAGCGUGGCAAAGUGGCUGUGGCUAGACUGCC

Variants of: B1
Assay: self-cleavage, relative activity (ratio to wild type); higher = more cleavage; in vitro, sequencing; the parent is a self-cleaving ribozyme

Variant | self-cleavage
G5U A6G G22A | 0.08
G5C U20A C45G C46A | 0.02
G5U A12G C13A C18U A39C | 0.05
G5U A14C C37G | 0.06
G5C U28G U38A | 0.01
G5C G17U A39G | 0.02
G5U A6G G44U | 0.06
G5C U20G A41U | 0.01
G5C G7U A14U G27U C37A C46U | 0.18
G5C G7C C8U A24U G27A G33C | 0.09
G5U C8A G36A C46U | 0.67
G5U A14G A39U C42A | 0.15
G5C G7C C31U | 0.02
G5U A6U C13U A14G G36U | 0.06
G5U A25C G30A | 0.09
G5U C10A C31A A39G | 0.02
G5U C8U C23U G40A | 0.03
G5U A6U C8U A25G G35U | 0.13
G5U A11C C15G G36U C42U | 0.01
G5U C8A C18U | 0.07
G5U A25G A41U C46G | 0.05
G5C G22A G27U | 0.03
G5C G22U A26U C46U | 0.06
G5U A24U G35U C45G C46G | 0.02

Variant | self-cleavage
G5C U28G G36U | 0.01
G5C U20C U32A C37A | 0.01
G5C G7A C8A C10G C13G G21C C37G U43G | 0.01
G5U C10A A14C | 0.03
G5C U20C G21C U38C | 0.02
G5U A14U G22C C42A | 0.03
G5C G27A C42U | 0.07
G5U A14C C15A | 0.03
G5U C8G C15A | 0.01
G5U C10A G17A G30U G36C C45G | 0
G5U A12C A14G U43C | 0.03
G5U A6G C10A C15G G21A | 0.03
G5U A26C G29U | 0.04
G5U A16G C46A | 0.03
G5U C8U G29U | 0.36
G5U A16G G17U U20C G44A | 0.02
G5C G7U C18G U38G | 0.01
G5C U9A A26U U38G G44U | 0.1
G5U A6C U38A G44A | 0.02
G5U A11U G27C | 0.02
G5C G17U G19A G30C G33A | 0.02
G5C U20C G40A | 0.05
G5U A24C C42A | 0.05
G5C G29U U32C C45U | 0.02

Variant | self-cleavage
G5U A6U C10G | 0.05
G5U A26G A39U C46G | 0
G5U A11G G40C | 0.03
G5U A11C G35A | 0.06
G5U A25U G27C C42U | 0.01
G5U C8A A14U G19U | 0.44
G5C G19C G40C A41C | 0.02
G5U A12U C15G C46U | 0.04
G5U C10G A24U | 0.04
G5U A25C G27U | 0.04
G5U C8A C15G G35U C45U | 0.44
G5U A11U C46A | 0.01
G5C G19U G33A | 0.02
G5U C8U C15A C23G A24G G27A G35C | 0.25
G5U A6C C23U A25C | 0.02
G5U A6U C8A G19A C31G | 1.15
G5U C8G C13A U20C C37U | 0.05
G5U A11C G17C C23A G30A | 0.01
G5U C8A A25C | 0.25
G5U C8A C13G G35A G36A | 0.3
G5U C8U A14U C23U G29C C31U G40C | 0.04
G5C U9A A12C C18A | 0.03
G5U A14G G35A | 0.04
G5C U9G A14G G29U | 0.02

Variant | self-cleavage
G5C G7A U9A G22U G33U U43C | 0.5
G5U C8A G29C G30A | 0.4
G5C U9A C37G | 0.09
G5C G27A C31A G33U | 0.17
G5U C10A G21C U43C | 0.01
G5U A26G A39U A41U | 0.09
G5U A25U G33U G35A G40C | 0.02
G5U C10A G30A | 0.02
G5C U20G C37U | 0.02
G5C U9A C13U U20G U28A A41C U43A | 0.05
G5U A14G C15A A16U C18G G44A | 0.07
G5U A25U U28C G35C | 0.02
G5U A14C A25U | 0.07
G5U A14G A41U | 0.09
G5C G19C G40C | 0.07
G5U A12C C13A G44C | 0
G5C G7C C46A | 0.23
G5C G17C A41G | 0.02
G5U A24U C45G | 0.14
G5U A11G A24U C31A | 0.01
G5C G19C G21A G35C A41C | 0.04
G5U A16G C37A | 0.14
G5U A6G A14C C37A | 0.05
G5C G7U G29U | 0.23

Variant | self-cleavage
G5C U9A G36U C46A | 0.04
G5U C10A C15G | 0.02
G5U A6C U9G G19C | 0.01
G5U A16G G35U | 0.05
G5C G30U C42G | 0.11
G5U C10A C13A | 0.02
G5U C10G A12C G40U | 0.03
G5U C8A A26U G29U | 0.25
G5U A14U C23A G44U | 0.07
G5C G7A U9A G19A U28C | 0.6
G5U A6U A39U | 0.12
G5C G22A C37G | 0.02
G5U A11U G17C | 0.01
G5U A16G G21A G35A G36U U43C | 0.04
G5U A11U A24C C37G | 0.01
G5U A25U G33U C42A | 0.07
G5U C8A A41U | 0.52
G5U A11G C23A C42U | 0.05
G5U A26G U28C G35C C45U | 0.03
G5U A6G G7A A12U C23U G27A G29C | 0.03
G5C U20A A24U G36A | 0.02
G5U A11G G29C C31G G35A | 0
G5C G19A U20G A25C A26C G33U | 0.12
G5U C8A C31U U32G G35U | 0.02

Variant | self-cleavage
G5C U32A U34C | 0.03
G5C G7U C10A C13A A14U G27U | 0.04
G5U C8A C13G G19A C45A | 0.05
G5U A26G C37U G40C | 0.05
G5C G17C G19U U38A | 0.04
G5C G29A C37U | 0.04
G5U A12G U20G | 0.03
G5C U9G C18U | 0.03
G5U A12G C15A U28A G36U | 0.02
G5C U9A A11G C23A C42G | 0.01
G5U A12U C13U G33U | 0.1
G5U A11C C13U G30C | 0.04
G5C G19U A41U G44A | 0.08
G5C G21U G40A C42U | 0.03
G5U A11U G19A G21A U28A | 0.02
G5C G7C C13U G17A U20A | 0.03
G5C U9A G17A | 0.03
G5U A14U G30C | 0.02
G5U A12G C46A | 0.01
G5C U32G A39C | 0.08
G5U A6U A12G C13A C18U G36U | 0.03
G5C U28A C31G A41C | 0.02
G5U A14G C23A | 0.06
G5U A6G A11U A12C U43G | 0

Variant | self-cleavage
G5C G7U C23U G35A | 0.74
G5U A16G C23A U38A | 0.03
G5C G27A G29U U38A | 0
G5C G30A A41G G44A | 0.1
G5U A41G C45U | 0.03
G5U C10A G17U A26U G33U G40U C45U | 0.01
G5U A6G U20G G33A | 0.02
G5U C10A U43C | 0.04
G5U C10A G27A U28G G33U | 0.01
G5U A6C A26C G30C A39C | 0.03
G5C G17U C18U G33U | 0.02
G5U A16C G40A | 0.07
G5U A16G U20C G21A A39U | 0.01
G5U A6C C8U | 0.37
G5C G7A C15U A25G U38A | 0.03
G5U A26C C42A | 0.76
G5U C8G G17A | 0.14
G5C G27U G30U C42A | 0.15
G5U A12C C31A | 0.01
G5U A14G C18G A24G U32C | 0
G5C G30A U34A A39U | 0.16
G5U C8U C10A U43A C46U | 0
G5U A6C U34G C37A C46G | 0.01

Reference: the RNAGym collection of RNA variant scans (doi:10.7554/elife.90254)
